For 23 compounds, IC50 results are on record in US11618753B2 (priority 2018, dated 2023).

The structures appear in SMILES notation.

Broadly, the IC50 is the midpoint of a concentration-inhibition curve.

The experiment relates to MLKL phosphorylation, HT29-L23 human colorectal adenocarcinoma cells. As to the kind of experiment: cells. The following applies: read-out: pMLKL HCS Cell Assay (IC50, uM).
`COc1cc(-c2cc(C(F)(F)F)c3c(N)ncnn23)cc(C(=O)N[C@@H]2CN(C(=O)c3ccccc3F)C[C@@H]2F)c1OC` [Example 594, 5-[4-amino-5-(trifluoromethyl)pyrrolo[2,1-f][1,2,4]triazin-7-yl]-N-[(3R,4S)-4-fluoro-1-(2-fluorobenzoyl)pyrrolidin-3-yl]-2,3-dimethoxybenzamide]: the IC50 was found to be 0.245 µM.

Consider `C[C@@](O)(C(=O)N1C[C@H](F)[C@H](NC(=O)c2cncc(-c3cc(C(F)(F)F)c4c(N)ncnn34)c2)C1)C(F)(F)F` [Example 279, 5-[4-amino-5-(trifluoromethyl)pyrrolo[2,1-f][1,2,4]triazin-7-yl]-N-[(3R,4S)-4-fluoro-1-[(2R)-3,3,3-trifluoro-2-hydroxy-2-methylpropanoyl]pyrrolidin-3-yl]pyridine-3-carboxamide], for which the IC50 is 0.08 µM.

For `CCc1ccc(-c2cc(C(F)(F)F)c3c(N)ncnn23)cc1C(=O)N[C@@H]1CN(C(=O)C2(F)CC2)C[C@@H]1F` [Example 970, 5-[4-amino-5-(trifluoromethyl)pyrrolo[2,1-f][1,2,4]triazin-7-yl]-2-ethyl-N-[(3R,4S)-4-fluoro-1-(1-fluorocyclopropanecarbonyl)pyrrolidin-3-yl]benzamide], the concentration for half-maximal inhibition (IC50) was 0.0093 µM.

For `Nc1ncnn2c(-c3ccc(F)c(C(=O)N[C@@H]4CN(C(=O)CC(O)(C(F)(F)F)C(F)(F)F)C[C@@H]4F)c3F)cc(C(F)(F)F)c12` [Example 720, 3-[4-amino-5-(trifluoromethyl)pyrrolo[2,1-f][1,2,4]triazin-7-yl]-2,6-difluoro-N-[(3R,4S)-4-fluoro-1-[4,4,4-trifluoro-3-hydroxy-3-(trifluoromethyl)butanoyl]pyrrolidin-3-yl]benzamide], the IC50 was 0.01 µM.

Turning to `Nc1ncnn2c(-c3ccc(Cl)c(C(=O)N[C@@H]4CN(C(=O)C5CC(F)C5)C[C@@H]4F)c3)cc(CN3CCC(C(F)(F)F)CC3)c12` (stereo partly drawn) [Example 1151, 5-(4-amino-5-{[4-(trifluoromethyl)piperidin-1-yl]methyl}pyrrolo[2,1-f][1,2,4]triazin-7-yl)-2-chloro-N-[(3R,4S)-4-fluoro-1-(3-fluorocyclobutanecarbonyl)pyrrolidin-3-yl]benzamide], the IC50 came to 0.0028 µM.

In the case of `Nc1ncnn2c(-c3ccc(F)c(C(=O)N[C@@H]4CN(C(=O)c5ccccc5F)C[C@@H]4F)c3F)cc(C(F)(F)F)c12` [Example 725, 3-[4-amino-5-(trifluoromethyl)pyrrolo[2,1-f][1,2,4]triazin-7-yl]-2,6-difluoro-N-[(3R,4S)-4-fluoro-1-(2-fluorobenzoyl)pyrrolidin-3-yl]benzamide], the IC50 was 0.068 µM.

`COc1ncc(-c2cc(C(F)(F)F)c3c(N)ncnn23)cc1C(=O)N[C@@H]1CN(C(=O)C2CC(O)(C(F)(F)F)C2)C[C@@H]1F` (stereo partly drawn) [Example 1547, 5-(4-Amino-5-(trifluoromethyl)pyrrolo[2,1-f][1,2,4]triazin-7-yl)-N-((3R,4S)-4-fluoro-1-(3-hydroxy-3-(trifluoromethyl)cyclobutane-1-carbonyl)pyrrolidin-3-yl)-2-methoxynicotinamide]: the IC50 amounted to 0.034 µM.

Turning to `COc1ncc(-c2cc(C(F)(F)F)c3c(N)ncnn23)cc1C(=O)N[C@@H]1CN(C(=O)CCC(C)C)C[C@@H]1F` [Example 308, 5-[4-amino-5-(trifluoromethyl)pyrrolo[2,1-f][1,2,4]triazin-7-yl]-N-[(3R,4S)-4-fluoro-1-(4-methylpentanoyl)pyrrolidin-3-yl]-2-methoxypyridine-3-carboxamide], the IC50 came out at 0.043 µM.

As to `COc1cc(C(=O)N[C@@H]2CN(C(=O)CC(O)(C(F)(F)F)C(F)(F)F)C[C@@H]2F)cc(-c2cc(C(F)(F)F)c3c(N)ncnn23)c1` [Example 577, 3-[4-amino-5-(trifluoromethyl)pyrrolo[2,1-f][1,2,4]triazin-7-yl]-N-[(3R,4S)-4-fluoro-1-[4,4,4-trifluoro-3-hydroxy-3-(trifluoromethyl)butanoyl]pyrrolidin-3-yl]-5-methoxybenzamide], the IC50 turned out to be 0.0027 µM.

As to `COc1ncc(-c2cc(C(F)(F)F)c3c(N)ncnn23)cc1C(=O)N[C@@H]1CN(C(=O)[C@@H](O)C(F)(F)F)C[C@@H]1F` [Example 322, 5-[4-amino-5-(trifluoromethyl)pyrrolo[2,1-f][1,2,4]triazin-7-yl]-N-[(3R,4S)-4-fluoro-1-[(2R)-3,3,3-trifluoro-2-hydroxypropanoyl]pyrrolidin-3-yl]-2-methoxy-pyridine-3-carboxamide], the IC50 turned out to be 0.083 µM.

`CCC(O)(C(=O)N1C[C@H](F)[C@H](NC(=O)c2cc(-c3cc(C(F)(F)F)c4c(N)ncnn34)ccc2OC(F)F)C1)C(F)(F)F` (stereo partly drawn) [Example 1096, 5-[4-amino-5-(trifluoromethyl)pyrrolo[2,1-f][1,2,4]triazin-7-yl]-2-(difluoromethoxy)-N-[(3R,4S)-4-fluoro-1-[2-hydroxy-2-(trifluoromethyl)butanoyl]pyrrolidin-3-yl]benzamide]: the IC50 was 0.025 µM.

Turning to `Cc1ncc(-c2cc(C(F)(F)F)c3c(N)ncnn23)cc1C(=O)NCCC(C)c1ccccc1` (centres unmarked) [Example 171, 5-[4-amino-5-(trifluoromethyl)pyrrolo[2,1-f][1,2,4]triazin-7-yl]-2-methyl-N-(3-phenylbutyl)pyridine-3-carboxamide], the IC50 amounted to 0.003 µM.

On to `COc1ncc(-c2cc(C(F)(F)F)c3c(N)ncnn23)cc1C(=O)N[C@@H]1CN(C(=O)CC2CC(F)(F)C2)C[C@@H]1F` [Example 1202, 5-[4-amino-5-(trifluoromethyl)pyrrolo[2,1-f][1,2,4]triazin-7-yl]-N-[(3R,4S)-1-[2-(3,3-difluorocyclobutyl)acetyl]-4-fluoropyrrolidin-3-yl]-2-methoxypyridine-3-carboxamide], for which the IC50 was 0.04 µM.

As for `Cc1ncc(-c2cc(C(F)(F)F)c3c(N)ncnn23)cc1C(=O)NC1CN(C(=O)C2CC2(F)F)C[C@@H]1F` (single isomer, unassigned) [Example 355, 5-[4-amino-5-(trifluoromethyl)pyrrolo[2,1-f][1,2,4]triazin-7-yl]-N-[1-(2,2-difluorocyclopropanecarbonyl)-4-fluoropyrrolidin-3-yl]-2-methyl-pyridine-3-carboxamide], the IC50 was found to be 0.0078 µM.

`CC(C)CC(=O)N1C[C@H](F)[C@H](NC(=O)c2cc(-c3cc(C(F)(F)F)c4c(N)ncnn34)ccc2OC(F)(F)F)C1` [Example 1047, 5-[4-amino-5-(trifluoromethyl)pyrrolo[2,1-f][1,2,4]triazin-7-yl]-N-[(3R,4S)-4-fluoro-1-(3-methylbutanoyl)pyrrolidin-3-yl]-2-(trifluoromethoxy)benzamide]: the IC50 turned out to be 0.091 µM.

Consider `COc1ncc(-c2cc(C(F)(F)F)c3c(N)ncnn23)cc1C(=O)N[C@@H]1CN(S(=O)(=O)C2CCOC2)C[C@@H]1F` (stereo partly drawn) [Example 1479, 5-[4-amino-5-(trifluoromethyl)pyrrolo[2,1-f][1,2,4]triazin-7-yl]-N-[(3R,4S)-4-fluoro-1-(oxolane-3-sulfonyl)pyrrolidin-3-yl]-2-methoxypyridine-3-carboxamide], for which the IC50 stood at 0.031 µM.

Take `COc1ncc(-c2cc(CN3CCC(F)(F)CC3)c3c(N)ncnn23)cc1C(=O)N[C@@H]1CN(S(=O)(=O)CC(F)(F)F)C[C@@H]1F` [Example 1542, 5-{4-amino-5-[(4,4-difluoropiperidin-1-yl)methyl]pyrrolo[2,1-f][1,2,4]triazin-7-yl}-N-[(3R,4S)-4-fluoro-1-(2,2,2-trifluoroethanesulfonyl)pyrrolidin-3-yl]-2-methoxypyridine-3-carboxamide]: the IC50 is 0.0025 µM.

Turning to `COc1ncc(-c2cc(C(F)(F)F)c3c(N)ncnn23)cc1C(=O)N[C@@H]1CN(S(=O)(=O)Cc2c(Cl)cccc2Cl)C[C@@H]1F` [Example 1492, 5-[4-amino-5-(trifluoromethyl)pyrrolo[2,1-f][1,2,4]triazin-7-yl]-N-[(3R,4S)-1-[(2,6-dichlorophenyl)methanesulfonyl]-4-fluoropyrrolidin-3-yl]-2-methoxypyridine-3-carboxamide], the IC50 stood at 0.0076 µM.

As for `COc1ncc(-c2cc(CN3[C@@H]4CC[C@H]3CC(F)(F)C4)c3c(N)ncnn23)cc1C(=O)N[C@@H]1CN(C(=O)C2CC(F)(F)C2)C[C@@H]1F` [Example 1612, 5-(4-amino-5-{[(1R,5S)-3,3-difluoro-8-azabicyclo[3.2.1]octan-8-yl]methyl}pyrrolo[2,1-f][1,2,4]triazin-7-yl)-N-[(3R,4S)-1-(3,3-difluorocyclobutanecarbonyl)-4-fluoropyrrolidin-3-yl]-2-methoxypyridine-3-carboxamide], the IC50 worked out at 0.0084 µM.

Regarding `Cc1ccc(-c2cc(C(F)(F)F)c3c(N)ncnn23)cc1C(=O)N[C@@H]1CN(C(=O)c2ccc(F)cc2)C[C@@H]1F` [Example 1002, 5-[4-amino-5-(trifluoromethyl)pyrrolo[2,1-f][1,2,4]triazin-7-yl]-N-[(3R,4S)-4-fluoro-1-(4-fluorobenzoyl)pyrrolidin-3-yl]-2-methylbenzamide], the IC50 was determined as 0.0052 µM.

Turning to `Cc1ncc(-c2cc(C(F)(F)F)c3c(N)ncnn23)cc1C(=O)NCCN1CCOC(c2ccccc2)C1` (centres unmarked) [Example 1720, 5-(4-amino-5-(trifluoromethyl)pyrrolo[2,1-f][1,2,4]triazin-7-yl)-2-methyl-N-(2-(2-phenylmorpholino)ethyl)nicotinamide], the IC50 came out at 0.217 µM.

As for `Cc1ncc(-c2cc(C(F)(F)F)c3c(N)ncnn23)cc1C(=O)Nc1cn(CCC(C)(O)C(F)(F)F)cn1` (centres unmarked) [Example 1781, 5-(4-amino-5-(trifluoromethyl)pyrrolo[2,1-f][1,2,4]triazin-7-yl)-2-methyl-N-(1-(4,4,4-trifluoro-3-hydroxy-3-methylbutyl)-1H-imidazol-4-yl)nicotinamide], the IC50 was determined as 0.022 µM.

On to `Nc1ncnn2c(-c3ccc(Cl)c(C(=O)N[C@@H]4CN(C(=O)c5ccccc5)C[C@@H]4F)c3)cc(C(F)(F)F)c12` [Example 954, 5-[4-amino-5-(trifluoromethyl)pyrrolo[2,1-f][1,2,4]triazin-7-yl]-N-[(3R,4S)-1-benzoyl-4-fluoropyrrolidin-3-yl]-2-chlorobenzamide], for which the IC50 came to 0.02 µM.
